Source: publication PMC12136788
This is one part of the list.

B1: chr1:224612315:224612316:-_ENSG00000162923_ENST00000295024|hu_mus|FALSE|FALSE (ssRNA)
RNA: GGGAGUUCUACAGUCCGACGAUCCGUCAGUUCGCAGCGUAGAACUUGAAGUGCCUCCAGGACCUUGCCGUCCUCCAGGUAUUCCAGGUACUUCUGCUGCAGCAGCAGAAACUUCAUCCUCACAAUAGCGUGAGGAGAAUGCACCAACAGAGGAUUGAGCAUCA
B2: chr12:56499883:56499884:+_ENSMUSG00000021024_ENSMUST00000021412|mus_hu|motif|central (ssRNA)
RNA: GGGAGUUCUACAGUCCGACGAUCGGUAAUGUGGCGGUCAAAACCGGCGCUGGAACCACGGGACAUGUUGGUAGAAGCACGGCUUUAAACACAAUCCCUGGGCCCCGUAGCUCCCGCACCAGGCACACAAGCACCUCCCGGAAGCAACAGAGGAUUGAGCAUCA
B3: chr18:43482012:43482013:-_ENSMUSG00000024501_ENSMUST00000121805|mus_mus|FALSE|FALSE (ssRNA)
RNA: GGGAGUUCUACAGUCCGACGAUCGGAUUGAUCCCCAAAUUUGAAUUGUAACUCAAAACUUCAUUCCAUUCUUUUUCUUCUAAAGUCUCCUUUAAAAUGAAAGCACCAUGAGAGCUUUAAAGAAGCAAGAUUCCUCUUCUGAGGCAACAGAGGAUUGAGCAUCA
B4: chr7:106826281:106826282:+_ENSG00000105856_ENST00000468410|hu_hu|FALSE|FALSE (ssRNA)
RNA: GGGAGUUCUACAGUCCGACGAUCUUCACUCUUCGAAGAAGAGGACACUGGUGGAGGGCGUGCAUAGGAAUGUAAACUUUUGCUAGUGGCUAUGAUGUGUACAGGAGAUGAUCUAUUGUAAAAUGAGCACUGCAUCAGUGGACUCAACAGAGGAUUGAGCAUCA
B5: chr4:144391305:144391306:+_ENSG00000109458_ENST00000262995|hu_mus|motif|central (ssRNA)
RNA: GGGAGUUCUACAGUCCGACGAUCCGGUGGAGAGAGAGAGAGAGCGAGCGAGCUAAGAGUAGUAAUCUUGAAUUCCUGCCGGAUUCAUUCAAAAUCACACUAUGCUGCUGACAGUGAACGCCAACUGUUUCAUUAAUUCUAAACCAACAGAGGAUUGAGCAUCA
B6: chr8:97244095:97244096:-_ENSG00000156467_ENST00000518406|hu_hu|FALSE|FALSE (ssRNA)
RNA: GGGAGUUCUACAGUCCGACGAUCAUGCUUCAAGUUCAGGUCCAGUGCCCUCUUAAUGCGAAACAUCCUGUCAUUAUAAAGGUUCUCAGGAAGUCUUCUUAUGGCUUCUUUUACAUCUUCAUCCUCGUAUAUUGUAUCAUCUCGCAACAGAGGAUUGAGCAUCA
B7: 46963496_46964334_1533_3pUTR_ENSMUSG00000025041_ENSMUST00000168536|mouse|control|control (ssRNA)
RNA: GGGAGUUCUACAGUCCGACGAUCAUUGAUAUCCACAUGCGUGUGUUCCACCGUUGACUCGUGCGGCAUCAGGACAUGGGCAGCUCUGAAGAGGUAGCUGAAUGGGUAGUACAGCAGGUUGAUGAACGAGGCCGCAUAGAGAUCCAACAGAGGAUUGAGCAUCA
B8: chr7:141445308:141445309:+_ENSG00000106028_ENST00000265304|hu_hu|hu_hu_hu_mus_False|48_98 (ssRNA)
RNA: GGGAGUUCUACAGUCCGACGAUCUAUGAUUGUUGUUGCUUGUCGCCUCACAUUGUUUUUAUCCAUGUACUCGCCAUAGUCCACUUUCCCUUCCAAAAAUAUACGAGCCCCCUUUUUCACAUACUGAUAUGCCACAUCUCUGAGCAACAGAGGAUUGAGCAUCA
B9: chr19:16212804:16212805:+_ENSG00000167460_ENST00000300933|hu_mus|hu_hu_hu_mus_False|18_108 (ssRNA)
RNA: GGGAGUUCUACAGUCCGACGAUCAACAAAUAUGCAAUGAAGGAAAGAUGUAACAUGGAACAGCAUUAAAGCUCAGUCAGAAGGCACAUGGGCAACAAUGAUCACCCCAGCAUUCUCCUACGUUGACCUUAAAGACAAUCUGUUCAACAGAGGAUUGAGCAUCA
B10: chr14:102368134:102368135:+_ENSG00000078304_ENST00000445439|hu_hu|hu_hu_hu_mus_True|78_108 (ssRNA)
RNA: GGGAGUUCUACAGUCCGACGAUCAAGGGGUUCCAUGAUCUUCACAAACUCUGAUGGUUCAAUGACAUCUAAAAUUUCUUCUAAUUCAUUUAAGAACAUUACUUCUUUUGGACUGUGAGUCUUUGGCCAGUAUUUGAGAAGUGCCAACAGAGGAUUGAGCAUCA
B11: chr7:99593380:99593381:+_ENSMUSG00000052572_ENSMUST00000098308|mus_hu|motif|central (ssRNA)
RNA: GGGAGUUCUACAGUCCGACGAUCGGUGAGGAGGCUCUCAUCUCAUCUCUUGGGCAGAAAGCCCGUCAGAGGUUCAUCCCGGCACCUGGCACUUUGAGCAAACCAAAGCCUUCCUUCAUACUGCAAUGUCUUUUCUGUCCCACCCAACAGAGGAUUGAGCAUCA
B12: chr4:140556289:140556290:+_ENSMUSG00000036622_ENSMUST00000037055|mus_mus|mus_mus_mus_hu_False|58_58 (ssRNA)
RNA: GGGAGUUCUACAGUCCGACGAUCGAUGGAGCUCACCAGGCCCCCUUUUGCCGUGCAGAACCCUGUGCGGGUCACCACUGCUAGCACGUGCGGUCCCACAUAGGCCCGGGCCUGCAAGAUGAGGGUCCCGCAGAAGAGUGUGUGCAACAGAGGAUUGAGCAUCA
B13: chr2:73747301:73747302:-_ENSMUSG00000018770_ENSMUST00000018914|mus_hu|FALSE|FALSE (ssRNA)
RNA: GGGAGUUCUACAGUCCGACGAUCAUAACCAAUGAUAAGGCUGCCAAAGACUGUUCCAAUACCAGCACCAGAACCAGCCACUCCUACUGUUGCAGCACCUGCACCAAUAAAUUUGGCAGCAGUAUCAAUGUCUCUGCUGAUUGCCAACAGAGGAUUGAGCAUCA
B14: chr7:54825262:54825263:-_ENSG00000132432_ENST00000352861|hu_hu|hu_hu_hu_mus_False|8_98 (ssRNA)
RNA: GGGAGUUCUACAGUCCGACGAUCCUGCCGGCUGGGCACAAACUGCAGCAUUACCUGAUCCAUGUUUGUUGGAUGGCGGAUUGAGAGCGUAGAGACACGUAGCUCAGGAGAGAACCGAGCCCAACGGCACCGGAACCUGGCAACCAACAGAGGAUUGAGCAUCA

target: T1, UNK ZnF1-3 (human, UniProt Q9C0B0 31-174); assay: nsRBNS (natural sequence RNA bind-n-seq); RBNS binding buffer (assumed for nsRBNS): 25 mM Tris pH 7.5, 150 mM KCl, 3 mM MgCl2, 0.01% Triton X-100, 500 ug/ml BSA, 20 U/ml SUPERase-In, 4 C; UNK is unkempt and MSI1 is Musashi-1; names of the RNAs are library labels; protein concentration not given here; high values mean tight binding
T1 sequence: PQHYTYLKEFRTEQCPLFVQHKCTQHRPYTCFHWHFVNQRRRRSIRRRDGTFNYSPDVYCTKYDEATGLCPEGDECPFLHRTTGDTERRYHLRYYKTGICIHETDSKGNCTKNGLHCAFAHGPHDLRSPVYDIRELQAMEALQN

Binder	binding signal [enrichment R]
B1	0.404
B2	0.64
B3	0.853
B4	1.44
B5	1.39
B6	0.55
B7	1.16
B8	0.742
B9	1.06
B10	0.734
B11	1.41
B12	1.08
B13	0.802
B14	1.34
